Binding signal data for 20 molecules are collected here from PMC9911399, “Two distinct binding modes provide the RNA-binding protein RbFox with extraordinary sequence specificity”.

Residue numbers refer to the chain shown, from its start. This is one part of the list.

The chains are these.
T1: RBFOX1 RRM (Homo sapiens, UniProt Q9NWB1 109-208)
T1 sequence: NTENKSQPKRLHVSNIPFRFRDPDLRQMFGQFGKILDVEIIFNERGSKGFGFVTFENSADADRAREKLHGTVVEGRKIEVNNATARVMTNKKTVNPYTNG

B1: UACGCGA (DNA:RNA)
RNA: GGGAGACCGGAAUUCAGAUUGUCCUACGCGAUUAAAUCCCGUCGUAGCCACCA
DNA 1: CAATCTGAATTCCGGTCTCCC
DNA 2: TGGTGGCTACGACGGGATT
B2: AGGAUCC (DNA:RNA)
RNA: GGGAGACCGGAAUUCAGAUUGUCCAGGAUCCUUAAAUCCCGUCGUAGCCACCA
DNA 1: CAATCTGAATTCCGGTCTCCC
DNA 2: TGGTGGCTACGACGGGATT
B3: GAUUGAU (DNA:RNA)
RNA: B1 RNA with U25G, C27U, G28U, C29G, G30A, A31U
DNA 1: CAATCTGAATTCCGGTCTCCC
DNA 2: TGGTGGCTACGACGGGATT
B4: GGGUUGC (DNA:RNA)
RNA: B2 RNA with A25G, A28U, C30G
DNA 1: CAATCTGAATTCCGGTCTCCC
DNA 2: TGGTGGCTACGACGGGATT
B5: GACGGAU (DNA:RNA)
RNA: B1 RNA with U25G, C29G, G30A, A31U
DNA 1: CAATCTGAATTCCGGTCTCCC
DNA 2: TGGTGGCTACGACGGGATT
B6: AUGUAGG (DNA:RNA)
RNA: B2 RNA with G26U, A28U, U29A, C30G, C31G
DNA 1: CAATCTGAATTCCGGTCTCCC
DNA 2: TGGTGGCTACGACGGGATT
B7: GCAAGAA (DNA:RNA)
RNA: B2 RNA with A25G, G26C, G27A, U29G, C30A, C31A
DNA 1: CAATCTGAATTCCGGTCTCCC
DNA 2: TGGTGGCTACGACGGGATT
B8: GGGACUU (DNA:RNA)
RNA: B2 RNA with A25G, U29C, C30U, C31U
DNA 1: CAATCTGAATTCCGGTCTCCC
DNA 2: TGGTGGCTACGACGGGATT
B9: ACGUAGA (DNA:RNA)
RNA: B2 RNA with G26C, A28U, U29A, C30G, C31A
DNA 1: CAATCTGAATTCCGGTCTCCC
DNA 2: TGGTGGCTACGACGGGATT
B10: AUGUAAA (DNA:RNA)
RNA: B2 RNA with G26U, A28U, U29A, C30A, C31A
DNA 1: CAATCTGAATTCCGGTCTCCC
DNA 2: TGGTGGCTACGACGGGATT
B11: GAUUGCU (DNA:RNA)
RNA: B2 RNA with A25G, G26A, G27U, A28U, U29G, C31U
DNA 1: CAATCTGAATTCCGGTCTCCC
DNA 2: TGGTGGCTACGACGGGATT
B12: CACAACC (DNA:RNA)
RNA: B2 RNA with A25C, G26A, G27C, U29A
DNA 1: CAATCTGAATTCCGGTCTCCC
DNA 2: TGGTGGCTACGACGGGATT
B13: UUAACGA (DNA:RNA)
RNA: B1 RNA with A26U, C27A, G28A
DNA 1: CAATCTGAATTCCGGTCTCCC
DNA 2: TGGTGGCTACGACGGGATT
B14: CGGCCUU (DNA:RNA)
RNA: B2 RNA with A25C, A28C, U29C, C30U, C31U
DNA 1: CAATCTGAATTCCGGTCTCCC
DNA 2: TGGTGGCTACGACGGGATT
B15: AACUCUG (DNA:RNA)
RNA: B1 RNA with U25A, G28U, G30U, A31G
DNA 1: CAATCTGAATTCCGGTCTCCC
DNA 2: TGGTGGCTACGACGGGATT
B16: GUGGUCU (DNA:RNA)
RNA: B2 RNA with A25G, G26U, A28G, C31U
DNA 1: CAATCTGAATTCCGGTCTCCC
DNA 2: TGGTGGCTACGACGGGATT
B17: UCAAGGG (DNA:RNA)
RNA: B1 RNA with A26C, C27A, G28A, C29G, A31G
DNA 1: CAATCTGAATTCCGGTCTCCC
DNA 2: TGGTGGCTACGACGGGATT
B18: CGUGAGA (DNA:RNA)
RNA: B1 RNA with U25C, A26G, C27U, C29A
DNA 1: CAATCTGAATTCCGGTCTCCC
DNA 2: TGGTGGCTACGACGGGATT
B19: CGUUUGU (DNA:RNA)
RNA: B2 RNA with A25C, G27U, A28U, C30G, C31U
DNA 1: CAATCTGAATTCCGGTCTCCC
DNA 2: TGGTGGCTACGACGGGATT
B20: AAAGGAC (DNA:RNA)
RNA: B2 RNA with G26A, G27A, A28G, U29G, C30A
DNA 1: CAATCTGAATTCCGGTCTCCC
DNA 2: TGGTGGCTACGACGGGATT

The assay addresses T1, RBFOX1 RRM. In words: EMSA; HiTS-Eq, 1 nM pool, 10 min; buffer printed only for the single-RNA assays: 10 mM Tris pH 7.5, 150 mM NaCl, 3.4 mM EDTA, 0.001% NP-40, 30 C. The settings on record: tags: His6 N-terminal (pET28a); label: 5' 32P. The method in brief:
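Purified wild-type or mutant RbFox RRM at increasing concentrations was equilibrated with 1 nM of 5′-radiolabelled RNA carrying 7 randomized nucleotides for 10 min in 50 µL. Unbound RNA was separated by 8% native PAGE and sequenced. Relative association constants came from read-count changes of each RNA species compared with the control reaction, normalised to the cognate motif.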
(In general: In EMSA bound probe runs differently from free probe, usually more slowly.)
As to B1, the binding signal is 0.0107 KA relative to UGCAUGU.

B2: the binding signal is 0.0155 KA relative to UGCAUGU.

B3: the binding signal is 0.0195 KA relative to UGCAUGU.

On to B4, for which the binding signal is 0.0294 KA relative to UGCAUGU.

Consider B5, for which the binding signal is 0.0218 KA relative to UGCAUGU.

With B6, the binding signal is 0.0127 KA relative to UGCAUGU.

B7: the binding signal is 0.0141 KA relative to UGCAUGU.

Regarding B8, the binding signal was 0.0311 KA relative to UGCAUGU.

As for B9, the binding signal is 0.0086 KA relative to UGCAUGU.

Consider B10, for which the binding signal was 0.00618 KA relative to UGCAUGU.

With B11, the binding signal was 0.0199 KA relative to UGCAUGU.

For the molecule B12, the binding signal was 0.00147 KA relative to UGCAUGU.

B13: the binding signal was 0.00827 KA relative to UGCAUGU.

For the molecule B14, the binding signal was 0.0133 KA relative to UGCAUGU.

For B15, the binding signal is 0.0104 KA relative to UGCAUGU.

In the case of B16, the binding signal was 0.0195 KA relative to UGCAUGU.

With B17, the binding signal was 0.00574 KA relative to UGCAUGU.

For B18, the binding signal was 0.016 KA relative to UGCAUGU.

In the case of B19, the binding signal is 0.0183 KA relative to UGCAUGU.

On to B20, for which the binding signal is 0.00793 KA relative to UGCAUGU.
